Measurements published in PubChem BioAssay AID1030 (National Center for Advancing Translational Sciences (NCATS), 2008).
The whole screen tested about 220,000 compounds, of which about 16,000 (7.3%) were called active. This list was built around the results that the source calls inconclusive (neither active nor inactive); the mix of calls is not that of the screen. Calls follow the shape of the dose curve; as a rule, active = well fitted inhibition curve with a large enough effect (not every such curve was filed as active); inconclusive = small, poorly fitted or top-dose-only effect, or another doubt; inactive = no such curve, though single readings can be large or run the other way. Potencies of inconclusive entries are doubtful fits and often do not repeat.

molecular target: Aldehyde dehydrogenase 1A1 (Homo sapiens) (UniProt P00352); assay: qHTS Assay for Inhibitors of Aldehyde Dehydrogenase 1 (ALDH1A1); conditions: Purified ALDH1A1, NADH fluorescence, propionaldehyde substrate; series mostly up to 75.3 µM; activity, negative = inhibition: at the top concentration;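 as to activity, negative = inhibition: plate controls were no enzyme wells and a reference inhibitor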
Chain of UniProt P00352 (P00352 whole entry, looked up): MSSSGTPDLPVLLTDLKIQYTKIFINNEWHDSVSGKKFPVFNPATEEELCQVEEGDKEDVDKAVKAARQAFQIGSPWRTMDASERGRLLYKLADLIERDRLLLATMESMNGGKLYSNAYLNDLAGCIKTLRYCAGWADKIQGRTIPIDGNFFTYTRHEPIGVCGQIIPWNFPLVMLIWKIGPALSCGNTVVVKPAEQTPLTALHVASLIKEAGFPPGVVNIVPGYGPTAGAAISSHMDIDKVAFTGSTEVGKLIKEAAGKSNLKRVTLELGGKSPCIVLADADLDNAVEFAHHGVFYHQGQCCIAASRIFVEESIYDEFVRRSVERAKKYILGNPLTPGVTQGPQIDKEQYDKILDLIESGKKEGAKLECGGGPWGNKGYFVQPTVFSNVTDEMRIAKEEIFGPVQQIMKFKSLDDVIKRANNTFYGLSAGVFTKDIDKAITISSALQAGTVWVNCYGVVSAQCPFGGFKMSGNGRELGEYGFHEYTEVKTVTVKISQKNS
Potency is read from the fitted curve at half-maximal effect; tags tell the direction and shape of the fitted curve.

Potency, inconclusive:
CCc1ccc(OCc2nnc(SCCN3CCOCC3)n2CC)cc1 39.8 µM [inhibitor, single point], N#Cc1cc(N)ccc1Sc1ccccc1 39.8 µM [inhibitor, single point], Cc1sc2nc(-c3ccccc3)oc(=O)c2c1C 37.7 µM [inhibitor, single point], O=C(O)COc1ccc(/C=N/n2c(COc3ccccc3)nc3ccccc3c2=O)cc1 37.7 µM [inhibitor, single point], O=C(Nc1ccc(Cl)c(S(=O)(=O)Nc2ccccc2Cl)c1)c1cccs1 31.6 µM [inhibitor, single point], CCN1/C(=C/c2ccc3cc(C)ccc3[n+]2C)Sc2ccc3sccc3c21 25.1 µM [inhibitor, partial curve, poor fit], Cc1ccc(NC(=O)COC(=O)c2sccc2C)cc1S(=O)(=O)N1CCOCC1 31.6 µM [inhibitor, single point], Cc1nc(SCC(=O)N2CCCc3ccccc32)c2oc3ccccc3c2n1 31.6 µM [inhibitor, single point], O=C(O)CC(SCC(=O)Nc1ccccc1)C(=O)O (centres undefined) 39.8 µM [inhibitor, single point], O=C(c1sc2cc([N+](=O)[O-])ccc2c1Cl)N1CCCCC1 39.8 µM [inhibitor, single point], COc1ccc(-c2cc3nc(C)cc(NCCO)n3n2)cc1 31.6 µM [inhibitor, single point], Cc1cccc(CN2CCN(c3ccccn3)CC2)c1 22.4 µM [inhibitor, single point], O=C1C=CC2=C3c4cc(O)c(O)cc4CC3(O)COC2=C1O (centres undefined) 39.8 µM [inhibitor, single point], CC1CC(C)CN(C(=O)CCCn2c(=S)[nH]c3ccccc3c2=O)C1 (centres undefined) 20 µM [inhibitor, partial curve], COc1ccc(C)cc1S(=O)(=O)Nc1cccnc1 39.8 µM [inhibitor, single point], Cc1ccc(SCCC(=O)Nc2cccc(N(C)S(C)(=O)=O)c2)cc1 25.1 µM [inhibitor, single point], CCN(/C=N/c1sc2c(c1C#N)CCCCC2)CC 14.1 µM [inhibitor, partial curve], COc1ccc(CNC(=O)C2COc3ccccc3O2)c(OC)c1 (centres undefined) 12.6 µM [inhibitor, partial curve], COc1ccc(OCC(=O)N/N=C(\C)c2ccc(-n3ccnc3)cc2)cc1 39.8 µM [inhibitor, partial curve], CC(=O)Nc1nc2n(n1)C(c1ccc(Cl)cc1)C=C(C)N2 (centres undefined) 31.6 µM [inhibitor, partial curve], c1ccc(-c2ccc(OCCCNC3CCCC3)cc2)cc1 39.8 µM [inhibitor, single point], O=c1c2oc3ccccc3c2ncn1Cc1ccccc1F 39.8 µM [inhibitor, single point], CCN(CC)CCCCn1c(-c2ccccc2)nc2c(NC3CCCCC3)nc(C)nc21 35.5 µM [inhibitor, partial curve], COCCNC(=O)c1ccc(N2CCC3(CC2)OCCO3)c([N+](=O)[O-])c1 39.8 µM [inhibitor, single point], CC1(C)CC(=O)c2cc(C(=O)Nn3cnnc3)c(=O)n(-c3ccccc3)c2C1 35.5 µM [inhibitor, single point], COc1ccc(C2N(c3cccc(Cl)c3)C(=O)C3CCCN32)cc1 (centres undefined) 37.7 µM [inhibitor, single point], Cn1nnnc1SCc1ccc(C(=O)Nc2ccccc2F)cc1 12.6 µM [inhibitor, partial curve], CCOC(=O)c1sc(NC(=O)c2ccccc2OC)nc1C 44.7 µM [inhibitor, single point], O=C(CCCOc1ccccc1)Nc1nccs1 39.8 µM [inhibitor, single point], CC1Cc2ccccc2N1C(=O)CSc1nnc(Cc2ccccc2)n1CCc1ccccc1 (centres undefined) 35.5 µM [inhibitor, single point], CSc1ccc(/C=N/n2c(Cc3ccc(Br)cc3)n[nH]c2=S)cc1 39.8 µM [inhibitor, single point], COc1ccc(S(=O)(=O)Cc2ccc(C(=O)NC(C)C)o2)cc1 39.8 µM [inhibitor, single point], O=C(Oc1ccc(N(Cc2cccs2)C2=NS(=O)(=O)c3ccccc32)cc1)c1ccccc1Cl 25.1 µM [inhibitor, partial curve], CCc1cc2c(N3CCN(c4nnc(CC)s4)CC3)ncnc2s1 25.1 µM [inhibitor, single point], O=C1C(C=NCc2ccco2)=C(O)c2ccccc21 39.8 µM [inhibitor, single point], O=C(c1cn(-c2ccccc2)nc1-c1ccccc1)N1CCOCC1 25.1 µM [inhibitor, single point], Cc1ccc(Sc2ccc(CO)cc2[N+](=O)[O-])cc1 39.8 µM [inhibitor, single point], Cc1ccc(C(=O)OCC(=O)c2ccc(Cl)s2)s1 22.4 µM [inhibitor, single point], CC(C)(CNC(=O)c1ccc(S(=O)(=O)N2CCCC2)cc1)N1CCOCC1 20 µM [inhibitor, single point], COc1ccc(CNc2oc(COc3ccccc3)nc2C#N)cc1 39.8 µM [inhibitor, single point], Cc1ccc(-c2cc(C(=O)NN3CCOCC3)c3cc(Br)ccc3n2)o1 28.2 µM [inhibitor, partial curve], O=S(=O)(c1ccc(Cl)cc1)N1CCN(c2nc(-c3cccs3)nc3ccccc23)CC1 25.1 µM [inhibitor, partial curve], c1ccc(-c2cc3c(N4CCCC4)ncnc3s2)cc1 35.5 µM [inhibitor, partial curve], CCOC(=O)CS(=O)(=O)CC(=O)Nc1ccc([N+](=O)[O-])cc1OC 23.8 µM [inhibitor, single point], CC1CN(C(=O)c2ccc(N3CCCCC3)c([N+](=O)[O-])c2)CC(C)O1 (centres undefined) 39.8 µM [inhibitor, single point]

Potency, active:
Cn1ccnc1SCC(=O)c1ccc(Cl)cc1 14.1 µM, O=C(CN1C(=O)NC2(CCCCCC2)C1=O)N1CCC(Cc2ccccc2)CC1 22.4 µM, COc1cccc(C(=O)C(C#N)=C(SC)SC)c1 7.08 µM, O=C1CCC(=O)N1c1ccc(CSc2nc3ccccc3[nH]2)cc1 14.1 µM, COc1ccc(NC(=O)/C(Cl)=C(/Cl)S(=O)Cc2ccccc2Cl)cn1 (centres undefined) 0.631 µM, Cc1ccc(S(=O)(=O)NC(CN2CCOCC2)=NCCNS(=O)(=O)c2ccccc2)cc1 2.51 µM, O=C(O)CC1(CC(=O)Nc2ccc(F)c(Cl)c2)CCCCC1 3.98 µM, O=C(CC1C(=O)NCCN1CC1CCCCC1)NCc1ccc(Cl)cc1 (centres undefined) 20 µM, C=CCNC(=S)Nc1cc(S(=O)(=O)N2CCOCC2)ccc1-n1cncn1 4.47 µM

activity, negative = inhibition, inactive:
CC1CCCC(CC(=O)O)(CC(=O)O)C1 (centres undefined) 4.96%, CN1CCN(c2ncnc3c2sc2nc(N4CCCC4)c4c(c23)CC(C)(C)OC4)CC1 0.133%, CC(C)(C)NCC(O)COc1nsnc1N1CCOCC1 (centres undefined) -5.08%, Cc1c(NS(=O)(=O)c2ccc3nc(COc4ccccc4Cl)[nH]c3c2)c(=O)n(-c2ccccc2)n1C 2.86%, COc1cc(C(c2c(C)[nH][nH]c2=O)c2c(C)[nH][nH]c2=O)cc(OC)c1OC -13.7%, COc1cc(NC(=O)Cn2nc(C(F)(F)F)c3c2CCCC3)cc(OC)c1OC -1.41%, CCN(C(=O)COC(=O)CNS(=O)(=O)c1ccccc1)c1ccccc1 -3.85%, O=C(OCc1nc2ccc(Cl)cc2n1CCO)c1ccc(O)cc1 -0.72%, COc1cccc(CN(C)C(=O)c2ccc3nccnc3c2)c1 2.36%, CC(C)(C)c1cc[n+](CC(=O)Nc2cc(C(F)(F)F)ccc2N2CCOCC2)cc1 11.9%, O=C(N/C=C/n1cnc2cc(C(F)(F)F)ccc21)c1ccccc1 1.79%, COc1cc(NC(=O)Cn2nc(Cc3cccnc3)c3ccccc3c2=O)cc(OC)c1OC 8.66%, COc1ccc(/C=C2\SC(N3CCc4ccccc4C3)=NC2=O)cc1OC -12.4%, CCOC(=O)CNC(=O)CSc1nnc(-c2cccc(OC)c2)n1CC -1.64%, CO/N=C\CC(=O)Nc1ccc(Cl)cc1Cl 12.9%, FC(F)(F)c1cccc(NC(=S)NCCc2ccccn2)c1 4.88%, COC(=O)C(NC(=O)c1ccc(OC)cc1)(Nc1ncc(S(=O)(=O)c2ccc([N+](=O)[O-])cc2)s1)C(F)(F)F (centres undefined) -8.58%, CN(NS(C)(=O)=O)c1ncc(C(F)(F)F)cc1Cl -0.587%, CC(NC(=O)C1CC12CCC2)c1ccccc1 (centres undefined) 2.97%, CCC(=O)CC(NC(=O)OC)c1ccc(F)cc1 (centres undefined) 12.9% [at 13.5 µM]
